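Where inhibition never reached the appropriate level, the endpoint shown equals the highest concentration tested. Otherwise, values were interpolated linearly from a five-concentration, 48-hour dose response in 96-well plates. GI50 is the concentration that inhibits growth by half.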 Not every entry of the source has a single result; some have several. The list is limited to them. An entry can have further records. For some of these results: Values that stand side by side repeat one measurement in other runs, samples, wells, individuals or studies. What stands in brackets tells the records apart. Letters count within one entry.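 At the TGI there is no net growth.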 For some of these results: Records of one sample usually come from different ranges of test concentrations, which the source does not state; a value can be the end of its range.
Experiments:
Assay in all cases: inhibition of tumour cell growth, NCI panel, 48 h
COLO 205 colon = system: COLO 205 colon
UACC-257 melanoma = system: UACC-257 melanoma
T-47D breast = system: T-47D breast
UO-31 renal = system: UO-31 renal
HL-60(TB) leukemia = system: HL-60(TB) leukemia
LOX IMVI melanoma = system: LOX IMVI melanoma
CCRF-CEM leukemia = system: CCRF-CEM leukemia
HOP-92 NSCLC = system: HOP-92 NSCLC

**Q.** `CC(=O)[O-].CC(=O)[O-].[Mn+2].c1ccc(/C(=N\Nc2ccccn2)c2ccccn2)cc1` was tested. Which TGI (COLO 205 colon) did it give?
**A.** 2.93 nM and 13.5 µM

**Q.** `CCC1(O)CC(OC2CC(N(C)C)C(OC3CC(O)C(OC4OC(C)C(=O)C=C4N)C(C)O3)C(C)O2)c2c(O)c3c(c(O)c2C1C(=O)OC)C(=O)c1cccc(O)c1C3=O` (stereo not given) was tested. Which TGI (UACC-257 melanoma) did it give?
**A.** 557 nM and 24.1 nM

**Q.** And the TGI (T-47D breast)?
**A.** 141 nM and 2.73 µM

**Q.** And the TGI (UO-31 renal)?
**A.** 293 nM and 27.6 nM

**Q.** `NC1=NC(=O)N2CC12` (stereo not given) was tested. Which TGI (HL-60(TB) leukemia) did it give?
**A.** > 100 µM [sample A] and 4.24 µM, 136 µM [sample B]

**Q.** How did the TGI (LOX IMVI melanoma) turn out when `CN(C)CC/C=C1\c2ccccc2Sc2ccc(Cl)cc21` was run?
**A.** 31.8 µM [sample A] and 3.03 µM [sample B]

**Q.** And the TGI (COLO 205 colon)?
**A.** 29.7 µM [sample A] and 2.95 µM [sample B]

**Q.** What about the TGI (T-47D breast) of the same molecule?
**A.** 41.2 µM [sample A] and 3.91 µM [sample B]

**Q.** With `CNC(=O)c1ccc(Nc2ncc(C(F)(F)F)c(NCc3nccnc3N(C)S(C)(=O)=O)n2)cc1` as the molecule, how does the TGI (CCRF-CEM leukemia) read?
**A.** > 10 µM [sample A, 1 test] and 9.73 µM [sample B, 1 test] and > 100 µM [sample C, mean of 2 tests]

**Q.** And the GI50 (HOP-92 NSCLC)?
**A.** 127 nM [sample A, 1 test] and 1.54 µM [sample B, mean of 2 tests] and 291 nM [sample C, mean of 2 tests]

From PubChem BioAssay (NCI)
